Measured values taken from PubChem BioAssay (NCI).
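Tested at 5 concentrations; 48 h exposure; 96-well plates; endpoints linearly interpolated, else capped at highest concentration. TGI is the concentration that stops growth completely.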

Assays:
Assay in all cases: growth of human tumour cells (NCI), 48 h
786-0 renal = tested on: 786-0 renal
A498 renal = tested on: A498 renal
A549 NSCLC = tested on: A549 NSCLC
ACHN renal = tested on: ACHN renal
BT-549 breast = tested on: BT-549 breast
CAKI-1 renal = tested on: CAKI-1 renal
CCRF-CEM leukemia = tested on: CCRF-CEM leukemia
COLO 205 colon = tested on: COLO 205 colon
DLD-1 colon = tested on: DLD-1 colon
DMS 114 small cell lung = tested on: DMS 114 small cell lung
DMS 273 small cell lung = tested on: DMS 273 small cell lung
DU-145 prostate = tested on: DU-145 prostate
EKVX NSCLC = tested on: EKVX NSCLC
HCC-2998 colon = tested on: HCC-2998 colon
HCT-116 colon = tested on: HCT-116 colon
HCT-15 colon = tested on: HCT-15 colon
HL-60(TB) leukemia = tested on: HL-60(TB) leukemia
HOP-18 NSCLC = tested on: HOP-18 NSCLC
HOP-62 NSCLC = tested on: HOP-62 NSCLC
HOP-92 NSCLC = tested on: HOP-92 NSCLC
HS 578T breast = tested on: HS 578T breast
HT29 colon = tested on: HT29 colon
IGROV1 ovarian = tested on: IGROV1 ovarian
K-562 leukemia = tested on: K-562 leukemia
KM12 colon = tested on: KM12 colon
LOX IMVI melanoma = tested on: LOX IMVI melanoma
LXFL 529 NSCLC = tested on: LXFL 529 NSCLC
M14 melanoma = tested on: M14 melanoma
M19-MEL melanoma = tested on: M19-MEL melanoma
MALME-3M melanoma = tested on: MALME-3M melanoma
MCF7 breast = tested on: MCF7 breast
MDA-MB-231 breast = tested on: MDA-MB-231 breast
MDA-MB-435 = tested on: MDA-MB-435
MDA-N = tested on: MDA-N
MOLT-4 leukemia = tested on: MOLT-4 leukemia
NCI-H226 lung = tested on: NCI-H226 lung
NCI-H23 lung = tested on: NCI-H23 lung
NCI-H460 lung = tested on: NCI-H460 lung
NCI-H522 lung = tested on: NCI-H522 lung
NCI/ADR-RES ovarian = tested on: NCI/ADR-RES ovarian
OVCAR-3 ovarian = tested on: OVCAR-3 ovarian
OVCAR-4 ovarian = tested on: OVCAR-4 ovarian
OVCAR-5 ovarian = tested on: OVCAR-5 ovarian
OVCAR-8 ovarian = tested on: OVCAR-8 ovarian
PC-3 prostate = tested on: PC-3 prostate
RPMI-8226 leukemia = tested on: RPMI-8226 leukemia
RXF 393 renal = tested on: RXF 393 renal
SF-268 CNS = tested on: SF-268 CNS
SF-295 CNS = tested on: SF-295 CNS
SF-539 CNS = tested on: SF-539 CNS
SK-MEL-2 melanoma = tested on: SK-MEL-2 melanoma
SK-MEL-28 melanoma = tested on: SK-MEL-28 melanoma
SK-MEL-5 melanoma = tested on: SK-MEL-5 melanoma
SK-OV-3 ovarian = tested on: SK-OV-3 ovarian
SN12C renal = tested on: SN12C renal
SNB-19 CNS = tested on: SNB-19 CNS
SNB-75 CNS = tested on: SNB-75 CNS
SNB-78 CNS = tested on: SNB-78 CNS
SR leukemia = tested on: SR leukemia
SW-620 colon = tested on: SW-620 colon
T-47D breast = tested on: T-47D breast
TK-10 renal = tested on: TK-10 renal
U251 CNS = tested on: U251 CNS
UACC-257 melanoma = tested on: UACC-257 melanoma
UACC-62 melanoma = tested on: UACC-62 melanoma
UO-31 renal = tested on: UO-31 renal
XF 498 CNS = tested on: XF 498 CNS

## CCOC(=O)NC1CCc2cc(OC)c(OC)c(OC)c2-c2ccc(OC)c(=O)cc21 (configuration not stated)
786-0 renal
  TGI: > 100 µM
A498 renal
  TGI: 20.6 µM
A549 NSCLC
  TGI: > 100 µM
ACHN renal
  TGI: > 100 µM
BT-549 breast
  TGI: 1.97 µM
CAKI-1 renal
  TGI: 96.5 µM
CCRF-CEM leukemia
  TGI: 88.1 µM
COLO 205 colon
  TGI: 0.0268 µM
DLD-1 colon
  TGI: > 100 µM
DMS 114 small cell lung
  TGI: 0.0156 µM
DMS 273 small cell lung
  TGI: > 100 µM
DU-145 prostate
  TGI: 0.755 µM
EKVX NSCLC
  TGI: > 100 µM
HCC-2998 colon
  TGI: 21.5 µM
HCT-116 colon
  TGI: 0.555 µM
HCT-15 colon
  TGI: 20.3 µM
HL-60(TB) leukemia
  TGI: 0.0296 µM
HOP-18 NSCLC
  TGI: > 100 µM
HOP-62 NSCLC
  TGI: 85.8 µM
HOP-92 NSCLC
  TGI: 7.82 µM
HS 578T breast
  TGI: 4.64 µM
HT29 colon
  TGI: 0.15 µM
IGROV1 ovarian
  TGI: > 100 µM
K-562 leukemia
  TGI: 90.6 µM
KM12 colon
  TGI: 0.151 µM
LOX IMVI melanoma
  TGI: > 100 µM
LXFL 529 NSCLC
  TGI: > 100 µM
M14 melanoma
  TGI: 17.5 µM
M19-MEL melanoma
  TGI: > 100 µM
MALME-3M melanoma
  TGI: 93.2 µM
MCF7 breast
  TGI: 90.8 µM
MDA-MB-231 breast
  TGI: 27.5 µM
MDA-MB-435
  TGI: 0.0294 µM
MDA-N
  TGI: 0.0426 µM
MOLT-4 leukemia
  TGI: 87.3 µM
NCI-H226 lung
  TGI: 1.13 µM
NCI-H23 lung
  TGI: 1.04 µM
NCI-H460 lung
  TGI: 17.5 µM
NCI-H522 lung
  TGI: 0.0329 µM
NCI/ADR-RES ovarian
  TGI: 1.57 µM
OVCAR-3 ovarian
  TGI: 0.0911 µM
OVCAR-4 ovarian
  TGI: > 100 µM
OVCAR-5 ovarian
  TGI: > 100 µM
OVCAR-8 ovarian
  TGI: 31.6 µM
PC-3 prostate
  TGI: > 100 µM
RPMI-8226 leukemia
  TGI: 57 µM
RXF 393 renal
  TGI: 19.1 µM
SF-268 CNS
  TGI: > 100 µM
SF-295 CNS
  TGI: 0.0501 µM
SF-539 CNS
  TGI: 0.0312 µM
SK-MEL-2 melanoma
  TGI: 2.19 µM
SK-MEL-28 melanoma
  TGI: > 100 µM
SK-MEL-5 melanoma
  TGI: 0.209 µM
SK-OV-3 ovarian
  TGI: 5.51 µM
SN12C renal
  TGI: 95.5 µM
SNB-19 CNS
  TGI: 10.4 µM
SNB-75 CNS
  TGI: 15.8 µM
SNB-78 CNS
  TGI: > 100 µM
SR leukemia
  TGI: 33 µM
SW-620 colon
  TGI: > 100 µM
T-47D breast
  TGI: > 100 µM
TK-10 renal
  TGI: 90.3 µM
U251 CNS
  TGI: 3.69 µM
UACC-257 melanoma
  TGI: > 100 µM
UACC-62 melanoma
  TGI: 78.4 µM
UO-31 renal
  TGI: > 100 µM
XF 498 CNS
  TGI: > 100 µM
